Experimental data from PubChem BioAssay AID2546 (National Center for Advancing Translational Sciences (NCATS), 2010).
Values joined by “and” are separate entries in the source; they are usually repeats but may differ in a detail not shown here. Identical values can stand only once. Among all 310,000 compounds or so, about 11,000 (3.5%) were called active. Inconclusive means that the source gave no clear call. Such entries were picked first, then a sample of the others. The call rests on the fitted dose curve; in most records, active means well fitted inhibition curve with a large enough effect; inconclusive means small, poorly fitted or top-dose-only effect, or effect the other way; inactive means flat fitted curve, though single readings scatter. Potencies of inconclusive entries are doubtful fits and often do not repeat.

assay: VP16 counterscreen qHTS for inhibitors of ROR gamma transcriptional activity; settings: Drosophila S2 Gal4-VP16 UAS-luciferase, luminescence, 20 h; series mostly up to 53.6 µM;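 further: Gal4-VP16 expression switched on by copper sulfate through the metallothionein promoter; nearly all actives have a fitted effect of over 50% in size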
On the % scale 0 is the no-effect control and ±100 the full control effect; potency means the concentration at half of the fitted maximal effect; tags describe the fitted curve by direction and shape.

Compound | Potency | activity, negative = inhibition
COc1ccc(-c2oc3cc(OC)ccc3c(=O)c2O)cc1 | active: 7.94 µM | –
O=C(O)c1ccc(-c2ccc3cc(C45CC6CC(CC(C6)C4)C5)c(O)cc3c2)cc1 | active: 11.2 µM | –
CC(C)CC1C(=O)N2CCCC2C2(O)O[C@@](NC(=O)C3C=C4c5cccc6[nH]c(Br)c(c56)CC4N(C)C3)(C(C)C)C(=O)N12 (some centres not stated) | inconclusive: 15.8 µM [inhibitor, single point] | –
CCC(C)n1c(O)c(C=Nc2cccc(C(F)(F)F)c2)c(=O)[nH]c1=S (configuration not stated) | inconclusive: 22.4 µM [inhibitor, single point] | –
O=C1NC(=O)N(Cc2ccco2)C(=O)/C1=C/c1ccc(-c2cccc([N+](=O)[O-])c2)o1 | inconclusive: 35.5 µM [inhibitor, single point] | –
CC(=O)Nc1cccc([As](=O)(c2cccc(NC(C)=O)c2)c2cccc(NC(C)=O)c2)c1 | inactive | –
Cc1ccc2c(c1)C1CN(C)CCC1N2C(=O)c1ccco1 (configuration not stated) | inactive | –
O=C(N/N=C/c1c(O)n(C2CC2)c(=S)[nH]c1=O)c1ccccc1O | active: 7.08 µM | –
O=c1nc(/C=C/c2ccc(Cl)cc2Cl)cc(C(F)(F)F)[nH]1 | inconclusive: 35.5 µM [inhibitor, single point] | –
O=C(O)Cc1cccnc1C(=O)O | inactive | –
O=c1[nH]c(=S)[nH]c(O)c1N=Nc1ccc2c(c1)OCO2 | inconclusive: 35.5 µM [inhibitor, single point] | –
O=Cc1cn(Cc2cccc([N+](=O)[O-])c2)c2ccccc12 | inconclusive: 35.5 µM [inhibitor, single point] | –
C=CCN1C(=O)NC(=O)C(Cc2ccc(OC)c(OC)c2)C1=O (configuration not stated) | inactive | –
CCC(=NCCc1c[nH]c2ccccc12)c1c(O)n(-c2ccc(C)cc2)c(=O)[nH]c1=O | inconclusive: 20 µM [inhibitor, single point] | –
Cc1cccc(-c2nc3ccc(C(=O)N4CCC5(CC4)OCCO5)cc3nc2-c2cccc(C)c2)c1 | inactive | –
CCN(CC)S(=O)(=O)c1ccc(NN=C(C#N)C#N)cc1 | inconclusive: 6.31 µM [inhibitor, single point] | –
CC1Oc2cc3c(-c4c(O)cc(O)c5c(O)c6c(cc45)OC(C)C(C)C6=O)c(O)cc(O)c3c(O)c2C(=O)C1C (configuration not stated) | inconclusive: 7.08 µM [inhibitor, full curve, poor fit] | –
CCn1ccnc1CN1CCCC(C(=O)c2ccc(SC)cc2)C1 (configuration not stated) | active: 6.31 µM | –
C#CC1(O)CCC2C3CCC4=CC(=O)CCC4(C)C3CCC21C (configuration not stated) | inactive | –
CCCCn1c(O)c(/C(CC)=N/N2CCCCC2c2cccnc2)c(=O)[nH]c1=S (configuration not stated) | inconclusive: 25.1 µM [inhibitor, single point] | –
Nc1ccccc1C(=O)OCC(=O)N1CCc2ccccc21 | inconclusive: 35.5 µM [inhibitor, single point] | –
CCCCCn1c(N)c(C(=O)NCc2cccs2)c2nc3ccccc3nc21 | inactive | –
O=P1(Oc2ccccc2)C[C@@H](O)[C@@H](O)[C@H](COCc2ccccc2)O1 (some centres not stated) | inactive | –
O=NN(CCCl)C(=O)NCCCl | inconclusive: 31.6 µM [activator, single point] | –

Compound | Potency | activity, negative = inhibition
CC(C)COP(=O)(c1ccc(N(C)C)cc1)C(Nc1ccccc1)c1ccccc1 (configuration not stated) | inconclusive: 35.5 µM [inhibitor, single point] | –
CC(C)Oc1cccc(NC(=O)c2cccn(Cc3ccc4c(c3)OC(F)(F)O4)c2=O)c1 | inconclusive: 17.8 µM [inhibitor, single point] | –
c1ccc(P(c2ccccc2)c2ccccc2)cc1 | inactive | –
O=C(CCCc1nc(-c2ccc(Cl)cc2)no1)NCC1CCCO1 (configuration not stated) | active: 12.6 µM | –
C=CCN1C(=O)NC(=O)/C(=C/c2ccc(OC)c(CSc3ccccn3)c2)C1=O | inconclusive: 22.4 µM [inhibitor, single point] | –
Cc1ccc(-n2nc(C)cc2NC(=O)COc2cc(C)cc3oc(=O)c4c(c23)CCC4)cc1 | inconclusive: 35.5 µM [inhibitor, single point] | –
Cc1cccc(-n2c(C)n[nH]c2=S)c1C | inconclusive: 20 µM [inhibitor, single point] | –
COc1cccc(-c2nc3ccc(N4CCN(C)CC4)cc3[nH]2)c1 | active: 2 µM | –
O=c1cccc2n1CC1CC2CN2CCCC[C@H]12 (some centres not stated) | inactive | –
O=C1/C(=C/c2ccncc2)N2CCC1CC2 | inconclusive: 35.5 µM [activator, single point] | –
c1ccc(NNc2ccccc2)cc1 | inactive | –
CC(C)c1ccc(N2C(=O)NC(=O)/C(=C/c3cnc(-c4ccccc4)nc3)C2=O)cc1 | inactive | –
c1ccc2cc3c(cc2c1)-c1cccc2cccc-3c12 | inactive | –
O=C(COC(=O)c1ccccc1)Nc1ccccc1Sc1ccccc1 | inconclusive: 17.8 µM [inhibitor, partial curve] | –
C=C(C)[C@H]1CN[C@H](C(=O)O)[C@H]1CC(=O)O | inconclusive: 35.5 µM [inhibitor, single point] | –
CCC(=O)N1CC(=O)Nc2ccc(F)cc2C1c1ccc(F)cc1 (configuration not stated) | inactive | –
C[C@H]1CCCC(=O)CCC/C=C/c2cc(O)cc(O)c2C(=O)O1 | inconclusive: 31.6 µM [activator, single point] and inconclusive: 35.5 µM [inhibitor, single point] | –
CC(C)=CCCC1(C)C=Cc2c(O)c3c(c(CC=C(C)C)c2O1)OC12C(CC4CC1C(C)(C)OC2(C/C=C(/C)C(=O)O)C4O)C3=O (configuration not stated) | inactive | –
CN(CCc1ccccc1)Cc1ccccc1[N+](=O)[O-] | inconclusive: 15.8 µM [activator, single point] | –
O=C(N/N=C/c1c(O)n(CCC2=CCCCC2)c(=O)[nH]c1=O)c1ccccc1 | inconclusive: 35.5 µM [inhibitor, single point] | –
CCCCC/C=C\C/C=C\C/C=C\C/C=C\CCCC(=O)Nc1ccc(O)cc1C | inconclusive: 22.4 µM [inhibitor, single point] | –
Cn1c(O)c(C=NCCN2CCN(C(=O)Nc3ccccc3)CC2)c(=O)n(C)c1=O | inactive | –
c1csc(CN2CCC3(CCNCC3)CC2)n1 | inactive | –
COc1cc2c3cc1Oc1c(OC)c(OC)cc4c1[C@@H](Cc1ccc(OC(=O)c5ccc([N+](=O)[O-])cc5)c(c1)Oc1ccc(cc1)C[C@@H]3N(C)CC2)N(C)CC4 | inconclusive: 35.5 µM [inhibitor, single point] | –

Compound | Potency | activity, negative = inhibition
COc1ccc(C2=NCC(=S)Nc3ccc(Cl)cc32)cc1Cl | active: 8.91 µM | –
O=C(NC(C(Cl)Cl)N1CCOCC1)c1ccccc1 (configuration not stated) | inactive | –
O=C1NC(=O)C(=Cc2cc(Cl)ccc2OCc2ccc(C(=O)O)cc2)C(=O)N1 | inconclusive: 17.8 µM [activator, single point] | –
CCOC(=O)C(O)(c1ccc(NC(=S)NC(=O)c2ccc(Cl)cc2Cl)cc1)C(F)(F)F (configuration not stated) | active: 10 µM | –
CCCCC[C@@H](/C=C/C=C\CCCCCCCC(=O)O)OO | inactive | –
CN1Cc2ccccc2[C@@H]2c3cccc4[nH]cc(c34)C[C@H]21 | inactive | –
COP(=S)(OC)SCn1nnc2ccccc2c1=O | inconclusive: 35.5 µM [inhibitor, single point] | –
O=C(CCS(=O)(=O)c1ccccc1)Nc1nnc(-c2ccco2)o1 | inconclusive: 35.5 µM [inhibitor, single point] | –
O=C1NC(=O)N(c2ccccc2)C(=O)/C1=C\C=C\c1ccccc1 | active: 10 µM | –
[Hg+][c]1ccccc1 | active: 2.82 µM | –
CN1CCc2cc3c(cc2[C@@H]1[C@@H]1OC(=O)c2c1ccc1c2OCO1)OCO3 | inactive | –
O=c1oc2ccccc2n1CCCOc1ccccc1 | inconclusive: 3.16 µM [activator, single point] | –
COC(=O)[C@@H]1[C@@H](O)[C@@]2(O)c3c(OC)cc(OC)cc3O[C@@]2(c2ccc(OC)cc2)[C@H]1c1ccccc1 | active: 0.1 µM | –
CC(C)[C@H]1C(=O)O[C@H](C(C)C)C(=O)N(C)[C@@H](C(C)C)C(=O)O[C@H](C(C)C)C(=O)N(C)[C@@H](C(C)C)C(=O)O[C@H](C(C)C)C(=O)N1C | inconclusive: 22.4 µM [inhibitor, single point] | –
CN(C)c1ccc(/C=C/c2cc[n+](C)c3ccccc23)cc1 | – | inactive: 0.0456% [at 10 µM]
S=c1nc(-c2ccccc2)n(-c2ccccc2)[nH]1 | inconclusive: 35.5 µM [inhibitor, single point] | –
CN1C2CCC1/C(=C/c1ccccn1)C(=O)/C2=C\c1ccccn1 | active: 2.51 µM | –
Nc1ccc(C2(c3ccc(N)cc3)c3ccccc3-c3ccccc32)cc1 | inconclusive: 3.16 µM [inhibitor, single point] | –
Cc1cc(NC(=O)CCl)no1 | inconclusive: 35.5 µM [inhibitor, single point] | –
CCOC(=O)Cn1cc([N+](=O)[O-])nc1[N+](=O)[O-] | active: 12.6 µM | –
O=Cc1cn(Cc2ccc([N+](=O)[O-])cc2)c2ccccc12 | inconclusive: 35.5 µM [inhibitor, partial curve] | –
CCOc1ccc(/C=C2/C(=O)NC(=O)N(CCc3ccc(F)cc3)C2=O)cc1 | inactive | –
COC(=O)C(O)(c1ccc(NC(=S)NC(=O)c2ccc(Cl)cc2Cl)c(C)c1)C(F)(F)F (configuration not stated) | inconclusive: 35.5 µM [inhibitor, single point] | –
Oc1ccc(C[C@H]2NCCc3cc(O)c(O)cc32)cc1O | inconclusive: 35.5 µM [inhibitor, single point] | –
